Laboratory results reported in article PMC4336329 (PLoS ONE, 2015).
About 14,000 (4.5%) of roughly 310,000 compounds showed an effect of 50% or more. The effect is printed as a negative number. The list shows a part of the results.

Target: human ether-à-go-go-related gene (hERG) potassium channel (human, UniProt Q12809)
Test: primary screen, population patch clamp on CHO cells stably expressing hERG
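Note: peak tail current of the secondary pulse compared with the same well before compound.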

Chain of human ether-à-go-go-related gene (hERG) potassium channel (Q12809 whole entry, looked up): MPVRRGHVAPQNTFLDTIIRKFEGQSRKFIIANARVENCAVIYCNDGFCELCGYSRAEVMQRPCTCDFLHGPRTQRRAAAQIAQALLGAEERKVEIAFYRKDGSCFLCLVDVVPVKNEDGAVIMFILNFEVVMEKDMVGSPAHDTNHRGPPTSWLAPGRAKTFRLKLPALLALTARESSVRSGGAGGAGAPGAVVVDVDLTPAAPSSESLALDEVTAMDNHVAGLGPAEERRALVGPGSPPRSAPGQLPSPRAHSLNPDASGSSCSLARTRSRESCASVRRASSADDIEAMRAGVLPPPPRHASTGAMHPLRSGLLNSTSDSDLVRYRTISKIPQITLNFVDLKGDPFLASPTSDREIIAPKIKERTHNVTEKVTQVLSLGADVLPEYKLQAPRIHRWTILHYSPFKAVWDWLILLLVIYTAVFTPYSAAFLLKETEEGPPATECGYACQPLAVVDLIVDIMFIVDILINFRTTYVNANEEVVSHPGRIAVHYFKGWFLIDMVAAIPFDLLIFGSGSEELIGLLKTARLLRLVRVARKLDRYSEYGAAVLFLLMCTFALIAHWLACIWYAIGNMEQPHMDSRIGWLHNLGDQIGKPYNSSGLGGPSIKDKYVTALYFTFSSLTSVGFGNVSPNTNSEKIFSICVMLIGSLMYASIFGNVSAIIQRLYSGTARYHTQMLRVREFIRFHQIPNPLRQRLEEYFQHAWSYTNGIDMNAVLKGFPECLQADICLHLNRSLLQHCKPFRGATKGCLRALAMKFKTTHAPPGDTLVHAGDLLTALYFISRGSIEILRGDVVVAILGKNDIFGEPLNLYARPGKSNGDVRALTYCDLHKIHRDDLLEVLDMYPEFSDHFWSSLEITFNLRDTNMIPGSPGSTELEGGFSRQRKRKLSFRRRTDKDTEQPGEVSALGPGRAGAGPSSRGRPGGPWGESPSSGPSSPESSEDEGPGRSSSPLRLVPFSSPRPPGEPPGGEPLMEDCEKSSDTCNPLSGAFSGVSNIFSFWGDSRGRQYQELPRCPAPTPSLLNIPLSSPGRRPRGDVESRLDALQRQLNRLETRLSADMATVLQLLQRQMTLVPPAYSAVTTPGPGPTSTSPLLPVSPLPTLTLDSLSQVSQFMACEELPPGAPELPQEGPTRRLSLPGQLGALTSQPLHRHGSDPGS

Structure (SMILES) | hERG current change (%, negative = inhibition) at 10uM
Nc1[nH]c(N=NC(=O)c2ccccc2)c2ccccc12 | -3.09%
CCCOC(=O)c1ccc(NC(=O)C2C3C=CC(O3)C2C(=O)O)cc1 (stereo not shown) | 15.9%
Cc1ccc(S(=O)(=O)N2CCCC2)cc1C(=O)O | 16.2%
Cc1c(NC(=S)/C=C2\N(C)c3ccccc3C2(C)C)c(=O)n(-c2ccccc2)n1C | 0.171%
CCN(Cc1ccccc1)S(=O)(=O)c1c(C)n(C)c(=O)n(C)c1=O | -18.8%
C=CCN(c1ccc(C(=O)Nc2ccc3c(c2)n(C)c(=O)n3C)cc1)S(C)(=O)=O | 15.7%
CC(C)(C)C(=O)N1CCN(c2ncnc3scc(-c4ccccc4)c23)CC1 | -30%
O=C(NCc1ccccc1)c1ccco1 | 2.34%
COc1ccc(CN2CCNC(=O)C2CC(=O)N(C)CCC2CCOCC2)c(OC)c1 (stereo not shown) | 8%
O=C(Nc1cccnc1)c1ccc(COCC(F)(F)F)cc1 | 7.03%
C=CCn1c(N)c(C(=O)N2CCN(C)CC2)sc1=S | -22.1%
C#CCNC(=O)C1=C[C@@H](c2coc3ccccc3c2=O)C[C@@H](OCCCCO)O1 | 1.71%
CCC1CCCCN1CCCNC(=O)CNC(=O)Cn1ccc2ccccc2c1=O (stereo not shown) | 12.3%
CNC(=O)[C@H]1O[C@@H](n2cnc3c(NCc4cccc(I)c4)nc(Cl)nc32)[C@H](O)[C@@H]1O | 1.58%
COc1cccc2c1cc1c(=O)n(CC(=O)N3CCCCCC3)nc(C)n12 | -2.48%
CCOc1cc2[nH]c(=S)n(Cc3ccc(C)o3)c(=O)c2cc1OCC | -4.12%
O=C(CSc1nnnn1-c1ccc2c(c1)CCC2)NCc1cccs1 | -3.81%
Cn1ncc2c(O/N=C(\N)c3ccc(C(F)(F)F)cc3)ncnc21 | -6.44%
CCOc1ccc(S(=O)(=O)N2CCc3ccccc3C2)cc1 | 9.5%
O=C(c1cnc2c(c1)COc1ccc(Cl)cc1-2)c1ccccc1O | -16.7%

Structure (SMILES) | hERG current change (%, negative = inhibition) at 10uM
O=c1cc(CN2CCN(c3ccc(O)cc3)CC2)nc2scc(-c3ccccc3)n12 | 5.58%
CCOc1nc(OCC)c2cnn(C)c2n1 | 15.8%
CCCCNC(=S)Nc1ccc(-c2nc3ccc(C)cc3s2)cc1 | 8.59%
CCOc1cc2c(cc1OC)C(c1cccc([N+](=O)[O-])c1)NCC2 (stereo not shown) | -19.8%
Cc1ccc(-n2c(C)cc(/C=N/NC(=O)CN(c3ccc(C)cc3C)S(C)(=O)=O)c2C)cc1 | 6.39%
Fc1cccc(CNC2CCN(CCc3ccccc3)CC2)c1 | -42.8%
CCOc1c(Cl)cc(CNCC(C)C)cc1OC.Cl | -6.91%
CN(C)c1ccc(C(=S)N2CCCCC2)cc1 | 8.24%
CCN(CC)C(=O)c1ccc(NS(=O)(=O)c2ccccc2)cc1 | 7.4%
Cc1ccc(S(=O)(=O)NC(CC(=O)O)c2cccs2)cc1 (stereo not shown) | 14.8%
COc1ccc(C(=O)NC(=S)N2CC(C)OC(C)C2)cc1 (stereo not shown) | 6%
COC(=O)C1CCN(C(=O)COC(=O)Cn2cnnn2)CC1 | 23.3%
Cc1ccc(/C=N\NC(=O)Cc2cccn2C)o1 | 23.7%
CN(C)/C=N/c1cc(=O)n(C)c(=O)n1CC1CC1 | 12%
O=C(CSc1ncn[nH]1)c1cccc([N+](=O)[O-])c1 | 14.3%
CCOC(=O)N1CCN(CC(=O)Nc2sccc2C#N)CC1 | -24.9%
O=C(Nc1nccs1)C1C2/C=C\CCCCC21 (stereo not shown) | 6.31%
O=C(CN1CCCCCC1)N1c2ccccc2Sc2ccccc21 | -19.2%
CC(C)N(Cc1ccccc1)C(=O)COC(=O)c1ccc(O)cc1 | 0.537%
Cn1c(N)c(C(=O)Nc2ccc3ccccc3c2)sc1=S | 1.24%

Structure (SMILES) | hERG current change (%, negative = inhibition) at 10uM
C[C@@]1([C@@H](NC(=O)c2cccs2)c2ccc(-c3ccccc3)cc2)C[C@H]1C1CCCCC1 | 13.5%
O=C(NC1CCCCC1)C(=O)N(Cc1cccnc1)C(C(=O)NCc1ccco1)c1ccccc1 (stereo not shown) | 6.88%
N#Cc1cccc(Nc2c3c(nc4ccccc24)CCC3)c1 | -72.2%
CC(C)NC(=O)CN(c1cccc([N+](=O)[O-])c1)S(=O)(=O)c1ccccc1 | 7.99%
CCOc1ccc(S(=O)(=O)N2CCN=C2Cc2ccccc2)cc1C | -9.28%
CCN(CC(=O)NCc1ccc(Cl)cc1)C(=O)c1c(C)noc1C | -7.88%
CCCCNC(=O)c1onc(CSc2ccccn2)c1C(=O)NCCCC | -47.8%
COc1cccc(-c2cc(-c3cccnc3)nc(N)c2C#N)c1 | -5.85%
Cc1cc(C)n2nc(SCC(=O)c3cc(C)n(-c4cc(C)on4)c3C)nc2n1 | -67.5%
CC(=O)Nc1c(C(N)=O)oc2ccc(Cl)cc12 | 6.54%
O=C(CN(C(=O)CSc1nc2ccccc2o1)c1ccccc1)NC1CCCCC1 | 5.84%
C/C=C/C(=O)OCC(=O)Nc1nc2ccc(C)cc2s1 | 10.6%
CC1(C)CC(=O)C(N=Nc2cccnc2)=C(O)C1 | 18.9%
CC1CCC(C(C)C)C(OC(=O)Cn2c(-c3ccc(F)cc3)[n+](C)c3ccccc32)C1.[Cl-] (stereo not shown) | -76.3%
O=c1[nH]c(=O)n(Cc2ccccc2)c(O)c1C=NCCCn1ccnc1 | 1.23%
C/C(=N\NC(=O)c1cccnc1)c1ccc(-n2ccnc2)cc1 | -25.4%
CS(=O)(=O)N(CC(=O)N1CCc2ccccc2C1)c1cccc([N+](=O)[O-])c1 | -37.3%
COC(=O)C1=CN(Cc2cccs2)C=C(C(=O)OC)C1c1cccc(Cl)c1 | 17.8%
